# Reference: the supplement of paper PMC4967469
# How the values were obtained:
# Test in all cases: Viability of human cancer cell lines after 72 h of drug (GDSC screen)
# [1] = compound: Cc1ccc(NC(=O)c2cccc(C(C)(C)C#N)c2)cc1Nc1ccc2ncn(C)c(=O)c2c1 [AZ628]; settings: top dose 4 µM; top dose inferred
# Description: (§1)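 Human cancer cell lines in 384-well plates, medium with 10% serum, drug for 72 h over a 256-fold dose range (nine 2-fold or five 4-fold steps up to the top dose). Adherent lines were fixed and stained with the nucleic acid dye Syto60, suspension lines read with resazurin; signal relative to control wells, capped at 0 and 100%. One two-parameter sigmoid per drug and line, fitted in a mixed model over all curves with the slope shared within a line.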
# [2] = compound: N#CC(c1ccnc(NCCc2cccnc2)n1)c1nc2ccccc2s1 [AS601245]; settings: top dose 8 µM; top dose inferred
# Description: as §1
# [3] = compound: NC(=O)C1CCCc2c1[nH]c1ccc(Cl)cc21 [EX-527]; settings: top dose 20 µM
# Description: as §1
# [4] = compound: Nc1ccc(C(=O)Nc2cccc(-c3nc(N4CCOCC4)c4oc5ncccc5c4n3)c2)cn1 [YM201636]; settings: top dose 5.12 µM; top dose inferred
# Description: as §1
# [5] = compound: Cn1cnc2c(F)c(Nc3ccc(Br)cc3Cl)c(C(=O)NOCCO)cc21 [AZD6244]
# Description: as §1
# [6] = compound: CC(=O)c1c(C)c2cnc(Nc3ccc(N4CCNCC4)cn3)nc2n(C2CCCC2)c1=O [PD-0332991]
# Description: as §1
# [7] = compound: COc1cc2c(Nc3ccc(NC(=O)c4ccccc4)cc3)ncnc2cc1OCCCN1CCOCC1 [ZM-447439]; settings: top dose inferred
# Description: as §1
# [8] = top dose 4 µM, screen: GDSC drug entry 1498, top dose inferred
cell line,measurement,setting,value
"MY-M12 (leukaemia, suspension)",AUC,[1],0.548
same,IC50,[1],0.344 µM
same,AUC,[2],0.763
same,IC50,[2],3.25 µM
same,AUC,[3],0.976
same,IC50,[3],> 20 µM
same,AUC,[4],0.695
same,IC50,[4],1.23 µM
"NB17 (neuroblastoma, adherent)",AUC,[1],0.982
same,IC50,[1],> 4 µM
same,AUC,[5]; [8],0.981
same,IC50,[5]; [8],> 4 µM
same,AUC,[3],0.926
same,IC50,[3],> 20 µM
same,AUC,[4],0.854
same,IC50,[4],5.03 µM
"NB69 (neuroblastoma, adherent)",AUC,[1],0.462
same,IC50,[1],0.199 µM
same,AUC,[2],0.878
same,IC50,[2],6.5 µM
same,AUC,[3],0.98
same,IC50,[3],> 20 µM
same,AUC,[4],0.888
same,IC50,[4],4.64 µM
"NCI-H64 (small cell lung carcinoma, suspension)",AUC,[1],0.996
same,IC50,[1],> 4 µM
same,AUC,[2],0.894
same,IC50,[2],5.3 µM
same,AUC,[3],0.994
same,IC50,[3],> 20 µM
same,AUC,[4],0.858
same,IC50,[4],2.6 µM
"NCI-H128 (small cell lung carcinoma, suspension)",AUC,[1],0.829
same,IC50,[1],> 4 µM
"NCI-H510A (small cell lung carcinoma, semi-adherent)",AUC,[1],0.967
same,IC50,[1],> 4 µM
same,AUC,[2],0.934
same,IC50,[2],> 8 µM
same,AUC,[3],0.959
same,IC50,[3],> 20 µM
same,AUC,[4],0.981
same,IC50,[4],> 5.12 µM
"NCI-H748 (small cell lung carcinoma, suspension)",AUC,[1],0.939
same,IC50,[1],> 4 µM
same,AUC,[2],0.981
same,IC50,[2],> 8 µM
same,AUC,[3],0.977
same,IC50,[3],> 20 µM
same,AUC,[4],0.929
same,IC50,[4],> 5.12 µM
"NCI-H1963 (small cell lung carcinoma, suspension)",AUC,[1],0.981
same,IC50,[1],> 4 µM
same,AUC,[2],0.929
same,IC50,[2],> 8 µM
same,AUC,[3],0.991
same,IC50,[3],> 20 µM
same,AUC,[4],0.991
same,IC50,[4],> 5.12 µM
"NCI-H2171 (small cell lung carcinoma, suspension)",AUC,[1],0.926
same,IC50,[1],> 4 µM
same,AUC,[2],0.95
same,IC50,[2],> 8 µM
same,AUC,[3],0.98
same,IC50,[3],> 20 µM
same,AUC,[4],0.951
same,IC50,[4],> 5.12 µM
"NCI-H2196 (small cell lung carcinoma, adherent)",AUC,[1],0.959
same,IC50,[1],> 4 µM
same,AUC,[2],0.88
same,IC50,[2],> 8 µM
same,AUC,[3],0.982
same,IC50,[3],> 20 µM
same,AUC,[4],0.772
same,IC50,[4],2.09 µM
"NK-92MI (lymphoid neoplasm, suspension)",AUC,[1],0.881
same,IC50,[1],3.68 µM
same,AUC,[2],0.83
same,IC50,[2],4.56 µM
"RL95-2 (endometrium, adherent)",AUC,[1],0.826
same,IC50,[1],2.38 µM
same,AUC,[5]; [8],0.623
same,IC50,[5]; [8],0.544 µM
same,AUC,[3],0.981
same,IC50,[3],> 20 µM
same,AUC,[4],0.886
same,IC50,[4],> 5.12 µM
"SKM-1 (haematopoietic neoplasm, suspension)",AUC,[1],0.922
same,IC50,[1],> 4 µM
same,AUC,[5]; [8],0.169
same,IC50,[5]; [8],0.0215 µM
"TE-441-T (rhabdomyosarcoma, adherent)",AUC,[1],0.82
same,IC50,[1],2.17 µM
same,AUC,[2],0.893
same,IC50,[2],> 8 µM
same,AUC,[4],0.911
same,IC50,[4],> 5.12 µM
"VM-CUB-1 (bladder, adherent, top dose 2 µM)",AUC,[6],0.899
same,IC50,[6],> 2 µM
same,AUC,[7],0.885
same,IC50,[7],> 2 µM
same,AUC,[5]; screen: GDSC drug entry 1062,0.867
same,IC50,[5]; screen: GDSC drug entry 1062,1.69 µM
"VMRC-LCD (lung adenocarcinoma, adherent, top dose 4 µM)",AUC,[6],0.951
same,IC50,[6],> 4 µM
same,AUC,[7],0.897
same,IC50,[7],3.52 µM
same,AUC,[5]; screen: GDSC drug entry 1062,0.993
same,IC50,[5]; screen: GDSC drug entry 1062,> 4 µM
"VMRC-RCZ (kidney, adherent, top dose 4 µM)",AUC,[6],0.745
same,IC50,[6],1.44 µM
same,AUC,[7],0.982
same,IC50,[7],> 4 µM
same,AUC,[5]; screen: GDSC drug entry 1062,0.928
same,IC50,[5]; screen: GDSC drug entry 1062,> 4 µM
"WIL2-NS (lymphoid neoplasm, suspension, top dose 4 µM)",AUC,[6],0.99
same,IC50,[6],> 4 µM
same,AUC,[7],0.992
same,IC50,[7],> 4 µM
same,AUC,[5]; screen: GDSC drug entry 1062,0.987
same,IC50,[5]; screen: GDSC drug entry 1062,> 4 µM
"WM35 (melanoma, adherent, top dose 4 µM)",AUC,[6],0.79
same,IC50,[6],1.8 µM
same,AUC,[7],0.851
same,IC50,[7],3.11 µM
same,AUC,[5]; screen: GDSC drug entry 1062,0.583
same,IC50,[5]; screen: GDSC drug entry 1062,0.423 µM
"WM793B (melanoma, adherent, top dose 4 µM)",AUC,[6],0.926
same,IC50,[6],> 4 µM
same,AUC,[7],0.884
same,IC50,[7],> 4 µM
same,AUC,[5]; screen: GDSC drug entry 1062,0.851
same,IC50,[5]; screen: GDSC drug entry 1062,3.58 µM
"WM1552C (melanoma, adherent, top dose 4 µM)",AUC,[6],0.981
same,IC50,[6],> 4 µM
same,AUC,[7],0.95
same,IC50,[7],> 4 µM
same,AUC,[5]; screen: GDSC drug entry 1062,0.91
same,IC50,[5]; screen: GDSC drug entry 1062,> 4 µM
"WM-115 (melanoma, adherent, top dose 4 µM)",AUC,[6],0.916
same,IC50,[6],> 4 µM
same,AUC,[7],0.953
same,IC50,[7],> 4 µM
same,AUC,[5]; screen: GDSC drug entry 1062,0.515
same,IC50,[5]; screen: GDSC drug entry 1062,0.277 µM
"WSU-DLCL2 (B-cell lymphoma, suspension, top dose 4 µM)",AUC,[6],0.958
same,IC50,[6],> 4 µM
same,AUC,[7],0.959
same,IC50,[7],> 4 µM
same,AUC,[5]; screen: GDSC drug entry 1062,0.987
same,IC50,[5]; screen: GDSC drug entry 1062,> 4 µM
"WSU-NHL (lymphoid neoplasm, suspension, top dose 4 µM)",AUC,[6],0.797
same,IC50,[6],1.63 µM
same,AUC,[7],0.806
same,IC50,[7],1.75 µM
same,AUC,[5]; screen: GDSC drug entry 1062,0.982
same,IC50,[5]; screen: GDSC drug entry 1062,> 4 µM
"YAPC (pancreas, adherent, top dose 4 µM)",AUC,[6],0.912
same,IC50,[6],> 4 µM
same,AUC,[7],0.943
same,IC50,[7],> 4 µM
same,AUC,[5]; screen: GDSC drug entry 1062,0.954
same,IC50,[5]; screen: GDSC drug entry 1062,> 4 µM
"YH-13 (glioma, adherent, top dose 4 µM)",AUC,[6],0.692
same,IC50,[6],0.895 µM
same,AUC,[7],0.884
same,IC50,[7],> 4 µM
same,AUC,[5]; screen: GDSC drug entry 1062,0.967
same,IC50,[5]; screen: GDSC drug entry 1062,> 4 µM
"YKG-1 (glioma, adherent, top dose 4 µM)",AUC,[6],0.747
same,IC50,[6],1.3 µM
same,AUC,[7],0.858
same,IC50,[7],3.36 µM
same,AUC,[5]; screen: GDSC drug entry 1062,0.862
same,IC50,[5]; screen: GDSC drug entry 1062,3.51 µM
"YT (lymphoid neoplasm, suspension, top dose 4 µM)",AUC,[6],0.901
same,IC50,[6],3.8 µM
same,AUC,[7],0.885
same,IC50,[7],3.24 µM
same,AUC,[5]; screen: GDSC drug entry 1062,0.968
same,IC50,[5]; screen: GDSC drug entry 1062,> 4 µM
"ZR-75-30 (breast, adherent, top dose 4 µM)",AUC,[6],0.983
same,IC50,[6],> 4 µM
same,AUC,[7],0.983
same,IC50,[7],> 4 µM
same,AUC,[5]; screen: GDSC drug entry 1062,0.983
same,IC50,[5]; screen: GDSC drug entry 1062,> 4 µM
"huH-1 (liver, adherent, top dose 4 µM)",AUC,[6],0.692
same,IC50,[6],0.991 µM
same,AUC,[7],0.92
same,IC50,[7],> 4 µM
same,AUC,[5]; screen: GDSC drug entry 1062,0.943
same,IC50,[5]; screen: GDSC drug entry 1062,> 4 µM
"no-11 (glioma, adherent, top dose 4 µM)",AUC,[6],0.973
same,IC50,[6],> 4 µM
same,AUC,[7],0.914
same,IC50,[7],> 4 µM
same,AUC,[5]; screen: GDSC drug entry 1062,0.945
same,IC50,[5]; screen: GDSC drug entry 1062,> 4 µM

# The IC50 comes from the fitted curve, where viability falls to half of the control; a limit (>, <) means that the fit lies beyond the doses tested. The AUC spans the tested range (256-fold, ending at the top dose) of the same fit; it is 1 without any effect and falls as sensitivity rises. For part of these data: An inferred top dose was derived from the fitted curves, not read from the paper. For part of these data: An entry number marks a drug with two screens in the source, which often give different values.
